Assay: HPLC analysis of methyl ester hydrolysis of succinylated norcocaine
Settings: pH 6, 7 and 8 at 5° C. over 24 hours

COC(=O)[C@H]1[C@@H](OC(=O)c2ccccc2)C[C@@H]2CC[C@H]1N2C(=O)CCC(=O)O [succinylated norcocaine, 3β-(Benzoyloxy)-8-succinoyl-8-azabicyclo[3.2.1]octane-2β-carboxylic acid methyl ester]
hydrolysis of the methyl ester (HPLC): essentially undetectable
